This is one part of the list. At the low end of the ranking, values are background and their order means little. The protein was read in a cell extract, so binding may be indirect.

The target of this assay is T1, HNF4alpha8 (COS-7 nuclear extract) (UniProt P41235-5).
T1 sequence: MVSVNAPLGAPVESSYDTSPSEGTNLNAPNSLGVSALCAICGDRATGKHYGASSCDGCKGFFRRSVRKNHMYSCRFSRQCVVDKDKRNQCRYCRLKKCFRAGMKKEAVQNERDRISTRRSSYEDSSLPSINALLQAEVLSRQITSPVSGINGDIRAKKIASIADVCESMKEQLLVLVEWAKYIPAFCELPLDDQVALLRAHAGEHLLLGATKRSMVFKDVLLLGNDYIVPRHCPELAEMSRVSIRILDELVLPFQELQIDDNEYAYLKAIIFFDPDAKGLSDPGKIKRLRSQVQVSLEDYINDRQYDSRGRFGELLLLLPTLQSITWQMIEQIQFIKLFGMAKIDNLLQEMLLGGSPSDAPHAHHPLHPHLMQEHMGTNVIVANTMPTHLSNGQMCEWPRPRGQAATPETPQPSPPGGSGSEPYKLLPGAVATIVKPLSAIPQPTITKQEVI
The assay is described as follows: protein-binding microarray. Particulars: COS-7 nuclear extract on double-stranded Agilent 4x180k PBM; binding buffer, salt, pH and temperature not given; high values mean tight binding; double strand, one strand shown; sequences stand for … in …GCCTAGGGAGATTAGAGTATCGGTCGA
Consider AGTTGCCTGATGACAACTGAATGTGACCTT, for which the binding signal (log2 normalized intensity) amounted to 5.02. For CAACCCTTGACCCCAGTAACAAAGGAAAGA the value was 3.82; for ATTACATGGAAGCCTTACCAGTAGGACCAC, -1.27.

For GGGAAGCTGTGTGAAGTGACTTGCCCTGTT, the binding signal (log2 normalized intensity) turned out to be 2.3. The result for CTGCCTTTCCCAGATGGATTGATAGACTTA reads 0.78; that for ATCTTATCAGAAACACACCCTTGGGGCTGA, -1.3; that for CACACACACACACATTGCAGTATGCCCCCC, 5.33.

With CCGGGCGGCAGCACAAGGCGGTAGCCATGG, the binding signal (log2 normalized intensity) is -1.25. For GACCCCATACTTCAGCAATTTCTTAGTAAA the value was 1.38. For GAGTACACACTGTAAAATTTCATGGCATTG the value was -0.933; for GGGTCACGTGGGGCCGGTACAAAAGGCCAA, 2.14; for TTCAAAGGAGGAGGCCTAGGCAGTCCACAG, -1.31. The result for AGACATGGACTCTGGGATCTCAGGGTGGAC reads 2.17. Consider CTCGTGGCCTCCACACATTGCCACACTATT, for which the binding signal (log2 normalized intensity) is -0.755. In the case of AAAAGGGAGTTTTCTGCTCTCAACTAGAGA, the binding signal (log2 normalized intensity) was -1.22.

As for CTGCTCCCCGCCTTGGCCTCCCGGAGAGGC, the binding signal (log2 normalized intensity) was 1.03.

Take GAAAAAGGTAAGGAGATAAGGTGATAAGGG: the binding signal (log2 normalized intensity) is -1.36. In the case of TGCCCTATGTCCTCCAGCTCTTGGGGAACA, the binding signal (log2 normalized intensity) turned out to be 0.218. For GGGACAAAGTTCATCTGGGCTTTAGGTTTG the value was 3.11; for CAAAGTGTGATTAACAAGCATTTTGTTCCC, 0.598; for GTCCAGTGACGGGTACAAGGAGGCCCCAAC, -0.322. For AACAGTGAATGTTTCGTAATATTTAGGTGT the value was 1.48; for CAACAGGTCCAAGGTTCAGAGCCTGGCTGG, 3.01. The result for GAGGAAAAGCTGTCTACAAACACAGAAGTG reads -1.29.

As for CAAGGACTGAAAGAACACAGCGCAGCACAC, the binding signal (log2 normalized intensity) is -1.32. For CAGGACGCTACCCGCTTGGCGTAGGCAACT the value was -1.3; for CCGCCTTCACTCCCCTGACAGCATGTTCGG, 0.533. For TCCTGCTGTTCCTTCAACACACAAGGCCCA the value was 0.459; for TAGCACTCTGGACTCTGAATCCAGCGATCC, 2.56. For ACAACCTACTCTTTCTCTGATGTCTGCTGA, the binding signal (log2 normalized intensity) turned out to be 0.146. As to AGTCCTTCTAAAGCAAATTTATAGGCACTA, the binding signal (log2 normalized intensity) is -1.46. For TTAACCTCTATTGACCTTCTTATTTGGAGA the value was 2.41; for GTAACACAGAGGCAGTGGGACAATGAAGCC, -1.29; for TCTTTGTTCTAGTAAGGCCTTCAAATGATT, 0.522. With GTCACTCAGCCCGAGAAACGATGTGAGGTC, the binding signal (log2 normalized intensity) turned out to be 1.51. With ATACTTTCAGCTAGCTGAGTGAGTAGGTTC, the binding signal (log2 normalized intensity) came to 0.882. For CTATTATGCCTTGACTTCAAATCATACTGA the value was -0.17. For CTGCCTCTCTGTGGAATCCTGCTAGCAGCT the value was -1.19; for GCCCGTGTGGGCGGGTGCAGCTTCCACCTG, -1.35.

On to TGGCGTATGCAGCAGGGCAGCAGCCTGACC, for which the binding signal (log2 normalized intensity) is 0.823. The result for CTTTCTCTGTGTGTATGTGTGTGTACACAT reads 2.75; that for TCTTGCAAACATTACTGGCACACAGCAGAT, -1.35. For GAAATGGTGGACTTTGTAGCTCAAACAGTC the value was 3.96; for AATCCCCTTCAAGTCTGAGATGAAGAGGCC, 0.198; for ATGGATTGGGGGCCATGTCTCAGCCCAAGA, -1.29. The result for GGCAGGAAAGGGCCTCTCAGGTCAGGGAAG reads -1.08; that for CTTCAGATAGCCTTTGCCTCCACCTTCTCT, 0.459. As to AACAACCCTTCGCTAGAGCAAATACAGCAC, the binding signal (log2 normalized intensity) was -1.26. The result for TCTGCCTAGGCATTTGGCTGTCTCAGTGGG reads 0.378; that for GTGTAACATTCATCTGAGACTAACTGCATT, -1.19.

As for GGGTGCAAACTCACCTGGAGAAGCAGAAGC, the binding signal (log2 normalized intensity) is -1.39.

As for CCTGTCCAAAGGTCATCTGTCACTCTAGAT, the binding signal (log2 normalized intensity) stood at 6.02.

Consider GTATATTCCCTTTGTATGGCAGGGGTTAAC, for which the binding signal (log2 normalized intensity) was 2.38.

As to AGGAGACAGGCTTTGAGCATCGCTGGACTC, the binding signal (log2 normalized intensity) worked out at 2.93. The result for ACGAGACGGTGTCCCTGGCCAATCCCAGGG reads -1.36; that for GGCTATACAATTCCAGCAAGGATGGGGGCA, 0.827. The result for AGCAAAGGTCATGCATAGAAGTATGTCTGG reads 1.29; that for TAGACAGCTTGAGAAACAGGGGCTTAAACC, -1.4. The result for AAGAGCTGAGGAAGTGCTGACCTTTGGTCT reads 7.88; that for GGCGGCGGCCTCTGGGAAATGTAGTTCCGG, -0.689; that for GGTCAACACAATCTGATAGTTGATTGATTG, 0.975. On to CAGGCAGAGGGTTAACCCCTATTAACCAAA, for which the binding signal (log2 normalized intensity) turned out to be 0.886. The result for CATACTTCAGCAATTTCTTAGTAAACACTG reads -1.2; that for TTGATTTAACATTTGTGATCTGGCACAAAT, 0.366; that for CTCCTGGTGTGCTGTTAGCTGAAGGACGTC, 0.726. For CGGTCACTACAACAACGGCGGCCCAGTCAA the value was -1.32; for CTGGCGTCCCCCACCTGGAATGTGCTCCCG, 3.76; for TGTTTGCATTAGTTATATCTTACCTCCTTC, 0.703. For CCCTGGAGCACAGAAGGAGGGCGGGGAGTC the value was -1.25; for TCTTCAAGGAGGTGAACTTTGAGACTATCC, 5.2. Take TTGGAAAAAGCAGGCAACCAAGGGTACACA: the binding signal (log2 normalized intensity) is -1.14. For GTCAGGGGCAGGTGGAGGTGGGATACTGGG the value was -1.15; for AGAGTCCAAATTCCTTGGTATGGCAAATAA, 2.16.

Values taken from PMC10726135.
